# Paper PMC6919601, “Identification of Plasmodium dipeptidyl aminopeptidase allosteric inhibitors by high throughput screening” (PLoS ONE, 2019)
# Screen size: about 110,000 compounds; about 230 (0.21%) showed an effect of 50% or more. Some of the results follow.
# Biological target: DPAP1 (Plasmodium falciparum, UniProt Q8IIJ9)
# Assay: primary screen, percent inhibition; read by cleavage of a fluorogenic dipeptide substrate; higher = more effect of the substance
# Set-up: species or system P. falciparum D10 trophozoite lysates; single well
# 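Also: 30 min substrate incubation versus DMSO and 10 µM JCP410 controls.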
# DPAP1, sequence (Q8IIJ9 whole entry, looked up): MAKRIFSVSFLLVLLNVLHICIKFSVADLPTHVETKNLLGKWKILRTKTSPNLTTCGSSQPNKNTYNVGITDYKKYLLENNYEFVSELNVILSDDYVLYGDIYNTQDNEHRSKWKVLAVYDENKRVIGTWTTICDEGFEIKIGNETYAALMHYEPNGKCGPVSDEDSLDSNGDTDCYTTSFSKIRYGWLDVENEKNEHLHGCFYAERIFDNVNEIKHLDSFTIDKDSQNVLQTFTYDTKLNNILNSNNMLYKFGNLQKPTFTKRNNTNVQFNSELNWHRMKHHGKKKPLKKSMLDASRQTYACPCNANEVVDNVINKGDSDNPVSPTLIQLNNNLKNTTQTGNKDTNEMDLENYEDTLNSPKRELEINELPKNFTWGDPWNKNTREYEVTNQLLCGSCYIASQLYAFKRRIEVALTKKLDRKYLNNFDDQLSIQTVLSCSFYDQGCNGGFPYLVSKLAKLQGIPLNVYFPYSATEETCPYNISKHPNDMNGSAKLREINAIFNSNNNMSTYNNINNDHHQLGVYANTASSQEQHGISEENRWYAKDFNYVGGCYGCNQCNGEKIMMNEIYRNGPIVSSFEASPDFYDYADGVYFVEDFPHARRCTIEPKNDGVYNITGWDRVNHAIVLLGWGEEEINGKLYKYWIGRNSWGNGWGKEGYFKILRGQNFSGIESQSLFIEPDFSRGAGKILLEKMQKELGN
row,Compound,% Inhibition @ 10 uM [%]
1,Cc1ccc2c(c1)c1c(c(=O)n(Cc3ccccc3)c(=O)n1CC(=O)NCC1CCCO1)n2C (stereo not shown),-3.36
2,COc1ccccc1S(=O)(=O)Cc1ccc(C(=O)NCCCN2CCOCC2)o1,3.77
3,C=CCOc1ccc(/C=C2\S/C(=N/c3ccc(C(=O)O)cc3)N(C)C2=O)cc1,-3.39
4,CCCn1c2ccccc2c2cnn(CC(=O)N3CCN(Cc4ccccc4)CC3)c(=O)c21,2.13
5,CCCCCCCCCCP(=O)(O)c1ccccc1,0.467
6,Cc1cc(OCc2nc3ccccc3s2)ccc1N,-0.279
7,Cc1ccc(S(=O)(=O)N2CCN(C(=O)CSc3nnnn3-c3ccccc3)C2)cc1,-1.69
8,O=C(Nc1cccc(F)c1)/C(=C\c1ccco1)NC(=O)c1ccsc1,-0.366
9,COCCn1c(=N)c(C(=O)OC)cc2c(=O)n3ccccc3nc21,0.279
10,CCN(CC)S(=O)(=O)c1ccc(NC(=O)c2ccco2)cc1,2.45
11,Cc1ccc(NC(=O)CSc2ccccn2)cc1,2.38
12,CCOC(=O)c1cc(C(=O)OCC)c(O)nc1C,-5.96
13,c1cc2c(cc1NC1C3CC4CC(C3)CC1C4)OCO2 (stereo not shown),-1.96
14,CCN1C(=O)/C(=C2/SC(C)=C(C)N2CC)S/C1=N\c1c(C)n[nH]c1C,4.06
15,CC(C)(C)N1C(=O)NC(=O)/C(=C/c2ccccc2Cl)C1=O,-0.712
16,Cc1nc(O)nc(O)c1S(=O)(=O)N1CCC(C(=O)NCCc2ccccc2)CC1,-2.56
17,CCSc1nc(-c2cccc(OC)c2)nc2c1Cc1c(CO)cnc(C)c1O2,3.54
18,COc1nc(C)nc(NC(=O)NS(=O)(=O)Nc2ccc([N+](=O)[O-])cc2)n1,1.42
19,O=C1N/C(=C/c2cc(Br)cs2)C(=O)N1Cc1ccccc1F,-3.63
20,CCc1ccc(OCC(=O)N(Cc2nc(-c3ccc(Cl)cc3)no2)C(C)C)cc1,-5.91
21,CCOC(=O)c1c(NC(=O)c2ccncc2)sc2c1CC(C)(C)OC2,0.484
22,CC(=O)N1CCC2(CC1)OC(=O)C(C)=C2C(=O)NC(C)CCc1ccccc1 (stereo not shown),-1.31
23,Cc1ccc(C(=O)Nc2cccc(C(O)c3ccccc3)c2)cc1 (stereo not shown),-0.891
24,CCN(CC)CCNC(=O)C1=Cc2sc(C)c(C)c2CS1,19.4
25,O=C1c2ccccc2C(=O)C1(CCO)c1ccccc1,-1.8

row,Compound,% Inhibition @ 10 uM [%]
1,CCOc1cc(S(=O)(=O)NCCc2c(C)[nH]c3c(C)cccc23)ccc1F,2.72
2,COc1ccc(N(CC(=O)Nc2ccc3c(c2)OCO3)S(C)(=O)=O)cc1OC,-6.24
3,CCc1nc2ccccc2n1CC(O)COc1ccccc1OC (stereo not shown),1.25
4,CC(=O)c1ccc(NC(=O)c2ccc(C(C)(C)C)cc2)cc1,0.324
5,COc1cccc(N2CCN(C3CC(=O)N(c4cccc(C)c4)C3=O)CC2)c1 (stereo not shown),-8.02
6,c1coc(CNCCc2c[nH]c3ccccc23)c1,0.673
7,COc1ccccc1[C@@H](C)C[C@H](NC(=O)c1ccc(OC(F)(F)F)cc1)C(=O)NCC#N,-4.82
8,CCOC(=O)C1=C(CS(=O)(=O)c2ccc(F)c(Cl)c2)NC(=O)NC1c1ccccc1OCC (stereo not shown),12.8
9,Cc1cc2n(n1)SC(NC(C)c1ccccc1)N2 (stereo not shown),2.65
10,N#CCNC(=O)C1(NC(=O)c2ccc(-c3ccc(-c4ccno4)cc3)cc2)CCCCC1,-1.41
11,Cc1ccc(C(=O)Cn2c3ccccc3n3nc(CCC(=O)O)c(=O)nc23)cc1,-0.865
12,CCSc1nnc2c(=O)[nH]c(=O)[nH]c2n1,-4.75
13,CC(=O)Nc1ccc(/C=C2\SC(=O)N(CC(=O)O)C2=O)cc1,-4.86
14,O=C(NC1CCCCC1)C1CC(c2ccccc2F)=NO1 (stereo not shown),7.39
15,CC(C)CN1C(=O)c2ccccc2C(C(=O)N2CCN(c3ccccn3)CC2)C1c1cccs1 (stereo not shown),-0.539
16,Cc1ccc(NC(=O)CN(c2ccccc2F)S(=O)(=O)c2ccccc2)cc1,3.66
17,CN(Cc1ccccc1)c1nc2c(S(=O)(=O)c3ccccc3)nnn2c2ccc(Cl)cc12,3.26
18,Cc1ccc(OCC(=O)N(Cc2nc(-c3ccc(Cl)cc3)no2)C(C)C)cc1,-3.06
19,CCN(CC)CCN(CC)Cc1cc(F)ccc1F,4.32
20,CCCCNC(=O)CNC(=S)N(Cc1ccccc1)Cc1ccccc1F,4.47
21,COc1ccc(OC)c(Nc2ccc3ccccc3n2)c1,1.84
22,Cc1cc2ccccc2c(=O)n1CC(=O)NCC(=O)N1CCN(C)CC1,-1.2
23,Cn1cccc1Cc1nnc(SCC(=O)NCc2ccc3c(c2)OCO3)n1-c1ccccc1,-1.3
24,CCN(C(=O)c1cc2c(=O)n3cccc(C)c3nc2n1C)c1ccccc1,2.76
